Results taken from PubChem BioAssay (Tox21).
“And” between values parts separate entries of the source, which are not always exact repeats. Equal values may be shown once. This list was built around the results that the source calls inconclusive (neither active nor inactive); the mix of calls is not that of the screen. Potencies beside an inconclusive call are fits to weak or partial responses and may not hold up. Where a structure was tested more than once in an assay, its records may differ in their call. The source made the active and inactive calls. Calls follow the shape of the dose curve; as a rule, active = well fitted curve in the direction sought with a large enough effect in the repeat runs; inconclusive = weak or mixed curves; inactive = no such curve, though single readings can be large; an effect the other way counts as inactive or inconclusive.

System: not listed separately
Experiment: Caspase-3/7 induction in HepG2 cells by small molecules, qHTS cell viability counter screen (AID 1346981); also: nearly all actives have a fitted effect of over 30% in size
Conditions: CellTiter-Fluor fluorescence, 17 h; series mostly up to 92.4 µM
How it was run: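 Steps: seed 2,000 HepG2 cells per well; incubate 5 hr at 37 C; pin-add compounds in DMSO; incubate 16 hr; add CellTiter-Fluor; after 1 hr at 37 C and 5% CO2, read fluorescence.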
Potency is read from the fitted curve at half-maximal effect; tags tell the direction and shape of the fitted curve.

Row | SMILES | Potency
1 | CCCCCCCCOC(=O)c1cc(O)c(O)c(O)c1 | inconclusive: 68.6 µM [cytotoxic, single point]
2 | On1ccccc1=S | active: 15.2 µM
3 | CSc1ccc2c(c1)N(CCC1CCCCN1C)c1ccccc1S2 (centres undefined) | active: 60.9 µM and active: 29.8 µM
4 | CCCCCC(=O)O[C@]1(C(C)=O)CC[C@H]2[C@@H]3CCC4=CC(=O)CC[C@]4(C)[C@H]3CC[C@@]21C | active: 60.7 µM and inconclusive: 33.5 µM [cytotoxic, single point]
5 | O=C(Nc1cccc(C(F)(F)F)c1)c1cc(Br)cc(Br)c1O | inconclusive: 4.86 µM [cytotoxic, full curve]
6 | CC1=C(/C=C/C(C)=C/C=C/C(C)=C\C=O)C(C)(C)CCC1 | inconclusive: 72.8 µM [cytotoxic, single point]
7 | CC/C(=C(\c1ccccc1)c1ccc(OCCN(C)C)cc1)c1ccccc1 | active: 54.9 µM [middle of 5 runs]
8 | Cc1cc(O)c(C(C)(C)C)cc1C(C)(C)C | inconclusive: 68.6 µM [cytotoxic, single point]
9 | Oc1c(Cl)cc(Cl)c(Cl)c1Cc1c(O)c(Cl)cc(Cl)c1Cl | inconclusive: 4.31 µM [cytotoxic, full curve] and inconclusive: 2.17 µM [cytotoxic, full curve] and inconclusive: 3.35 µM [cytotoxic, full curve]
10 | CCN(CC)c1ccc(N)cc1 | active: 25 µM
11 | C#C[C@]1(O)CC[C@H]2[C@@H]3CCC4=CC(=O)CC[C@@H]4[C@H]3CC[C@@]21CC | inconclusive: 68.6 µM [cytotoxic, single point]
12 | CC1=C(/C=C/C(C)=C/C=C/C(C)=C/C(=O)Nc2ccc(O)cc2)C(C)(C)CCC1 | active: 55.9 µM and active: 26.6 µM
13 | O=C1c2c(O)ccc([N+](=O)[O-])c2C(=O)c2c([N+](=O)[O-])ccc(O)c21 | active: 24.1 µM
14 | CC(C)(C)c1ccc(O)c(C(C)(C)C)c1 | inconclusive: 68.3 µM [cytotoxic] and inconclusive: 68.6 µM [cytotoxic, single point]
15 | Clc1ccccc1C(c1ccccc1)(c1ccccc1)n1ccnc1 | active: 48.6 µM and inconclusive: 33.5 µM [cytotoxic, single point]
16 | CC(C)(c1cc(Br)c(O)c(Br)c1)c1cc(Br)c(O)c(Br)c1 | inconclusive: 68.3 µM [cytotoxic, single point] and inconclusive: 68.4 µM [cytotoxic, single point]
17 | CN1CCN(CCCN2c3ccccc3Sc3ccc(C(F)(F)F)cc32)CC1 | inconclusive: 33.5 µM [cytotoxic, single point]
18 | Clc1ccc(C(c2ccccc2Cl)C(Cl)Cl)cc1 (centres undefined) | inconclusive: 24.3 µM [rising, partial curve, poor fit]
19 | O=C1CCCCCN1 | inconclusive: 54.6 µM [cytotoxic, partial curve, poor fit]
20 | CCCCCCCCCCCCN | inconclusive: 68.6 µM [cytotoxic, single point]
21 | CCCOc1sc(C(=O)N2CCC(c3cc(CN)ccc3F)CC2)c(C)c1Br | active: 49.9 µM
22 | C=CC(=O)OCC(CO)(COCC(COC(=O)C=C)(COC(=O)C=C)COC(=O)C=C)COC(=O)C=C | active: 3.81 µM
23 | Clc1ccc(C(Cn2ccnc2)OCc2c(Cl)cccc2Cl)c(Cl)c1 (centres undefined) | inconclusive: 33.5 µM [cytotoxic, single point]
24 | c1ccc(-c2ccc(C(c3ccccc3)n3ccnc3)cc2)cc1 (centres undefined) | inconclusive: 33.5 µM [cytotoxic, single point]

Target: Nuclear receptor subfamily 1 group I member 2 (Homo sapiens) (UniProt O75469)
Experiment: Human pregnane X receptor (PXR) small molecule agonists, qHTS assay (AID 1346982); also: nearly all actives have a fitted effect of over 35% in size
Conditions: PXR-Luc HepG2, CYP3A4 luciferase reporter, 24 h; series mostly up to 92.4 µM
How it was run: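 Agonist mode qHTS: PXR-Luc HepG2 cells plated 5 hr before DMSO-dissolved compounds were pinned in, cultured 24 hr at 37 C, 5% CO2; ONE-Glo luminescence readout.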

Chain of UniProt O75469 (O75469 whole entry, looked up): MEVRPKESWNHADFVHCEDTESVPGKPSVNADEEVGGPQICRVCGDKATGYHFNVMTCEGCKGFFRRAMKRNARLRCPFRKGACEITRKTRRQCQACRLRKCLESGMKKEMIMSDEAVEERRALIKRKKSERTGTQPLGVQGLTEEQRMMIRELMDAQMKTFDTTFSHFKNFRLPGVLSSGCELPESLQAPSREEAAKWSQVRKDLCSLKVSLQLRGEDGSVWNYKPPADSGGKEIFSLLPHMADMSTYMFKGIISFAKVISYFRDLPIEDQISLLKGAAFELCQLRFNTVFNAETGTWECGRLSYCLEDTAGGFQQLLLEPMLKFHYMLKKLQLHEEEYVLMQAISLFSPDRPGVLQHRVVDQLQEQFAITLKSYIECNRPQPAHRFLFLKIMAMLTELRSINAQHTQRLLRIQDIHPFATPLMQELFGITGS

Row | SMILES | Potency
25 | CCCCCCCCOC(=O)c1cc(O)c(O)c(O)c1 | inconclusive: 68.6 µM [activator]
26 | CC1CC(OC(=O)c2ccccc2O)CC(C)(C)C1 (centres undefined) | inconclusive: 67.9 µM [activator] and inactive
27 | CCCCCC(=O)O[C@]1(C(C)=O)CC[C@H]2[C@@H]3CCC4=CC(=O)CC[C@]4(C)[C@H]3CC[C@@]21C | active: 9.62 µM and active: 11.9 µM
28 | Cc1cc(O)c(C(C)(C)C)cc1C(C)(C)C | inconclusive: 15.4 µM [activator, partial curve]
29 | C#C[C@]1(O)CC[C@H]2[C@@H]3CCC4=CC(=O)CC[C@@H]4[C@H]3CC[C@@]21CC | inconclusive: 33.5 µM [activator, single point]
30 | CC1=C(/C=C/C(C)=C/C=C/C(C)=C/C(=O)Nc2ccc(O)cc2)C(C)(C)CCC1 | active: 19.8 µM
31 | Clc1ccc(C(c2ccccc2Cl)C(Cl)Cl)cc1 (centres undefined) | inconclusive: 18.8 µM [activator, partial curve, poor fit]
32 | CCCCCCCCCCCCN | inconclusive: 69.1 µM [activator, single point] and inconclusive: 49.3 µM [activator, partial curve, poor fit]
33 | CCCCCCCCCCCCc1ccccc1O | inconclusive: 7.7 µM [activator, partial curve]
34 | CCCCCCCC/C=C/CCCCCCCC1=NCCN1CCO | inconclusive: 21.7 µM [activator, partial curve]
